Experimental data taken from patent US20240092890A1 (JUNTENDO EDUCATIONAL FOUNDATION, published 2024).

How the values were obtained:
[1] = target: T1, Ins 5 type mutant CALR protein on UT-7/TPO CALR Ins 5 cells (UniProt P27797 18-417); assay: cell-based or functional assay
T1 sequence (looked up): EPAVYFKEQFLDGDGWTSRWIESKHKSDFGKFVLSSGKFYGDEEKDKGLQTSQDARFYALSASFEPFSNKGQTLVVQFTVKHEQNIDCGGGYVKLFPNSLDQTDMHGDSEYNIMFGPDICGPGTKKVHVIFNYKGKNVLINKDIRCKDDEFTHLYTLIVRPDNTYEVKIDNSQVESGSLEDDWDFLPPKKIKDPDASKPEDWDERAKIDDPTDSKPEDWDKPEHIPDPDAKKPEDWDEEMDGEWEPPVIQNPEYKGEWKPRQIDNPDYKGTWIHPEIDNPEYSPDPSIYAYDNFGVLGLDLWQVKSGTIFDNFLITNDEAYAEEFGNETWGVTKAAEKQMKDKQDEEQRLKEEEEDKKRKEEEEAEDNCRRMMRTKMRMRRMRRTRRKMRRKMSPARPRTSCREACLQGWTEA

[2] = target: T1, Ins 5 type mutant CALR protein on …; assay: cell-based or functional assay; remark: listed apart in the source

B1: Antibody 1 (bispecific antibody)
chain: QVQLQQSGAELVKPGSSVKISCKASGYTFTRNFIHWIKQQPGNGLEWIGWIFPGDGDTEYNQKFNGKATLTADKSSSTAYMQLSSLTSEDSAVYFCARGNYNYEYFDYWGQGVMVTVSSGGGGSGGGGSGGGGSDIQMTQSPASLSASLGETVSIECLASEDIYSYLAWYQQKPGKSPQLLIFAANRLQDGVPSRFSGSGSGTQFSLKISGMQPEDEGDYFCLQGSKFPYTFGPGTKLELNGGGGSQVQLVQSGGGVVQPGRSLRLSCKASGYTFTRYTMHWVRQAPGKGLEWIGYINPSRGYTNYNQKVKDRFTISRDNSKNTAFLQMDSLRPEDTGVYFCARYYDDHYSLDYWGQGTPVTVSSGGGGSGGGGSGGGGSDIQMTQSPSSLSASVGDRVTITCSASSSVSYMNWYQQTPGKAPKRWIYDTSKLASGVPSRFSGSGSGTDYTFTISSLQPEDIATYYCQQWSSNPFTFGQGTKLQITR[… human IgG1 Fc with changes …]
EC50 of cytotoxic activity (calcein release, T-LAK effector cells) [1]: 20 pM

B2: Antibody 3 (bispecific antibody)
chain: QVQLVQSGGGVVQPGRSLRLSCKASGYTFTRYTMHWVRQAPGKGLEWIGYINPSRGYTNYNQKVKDRFTISRDNSKNTAFLQMDSLRPEDTGVYFCARYYDDHYSLDYWGQGTPVTVSSGGGGSGGGGSGGGGSDIQMTQSPSSLSASVGDRVTITCSASSSVSYMNWYQQTPGKAPKRWIYDTSKLASGVPSRFSGSGSGTDYTFTISSLQPEDIATYYCQQWSSNPFTFGQGTKLQITRGGGGSQVQLQQSGAELVKPGSSVKISCKASGYTFTRNFIHWIKQQPGNGLEWIGWIFPGDGDTEYNQKFNGKATLTADKSSSTAYMQLSSLTSEDSAVYFCARGNYNYEYFDYWGQGVMVTVSSGGGGSGGGGSGGGGSDIQMTQSPASLSASLGETVSIECLASEDIYSYLAWYQQKPGKSPQLLIFAANRLQDGVPSRFSGSGSGTQFSLKISGMQPEDEGDYFCLQGSKFPYTFGPGTKLELN[… human IgG1 Fc with changes …]
EC50 of cytotoxic activity (calcein release, T-LAK effector cells) [1]: 19 pM

B3: Antibody 105 (bispecific antibody)
chain: QVQLVQSGGGVVQPGRSLRLSCKASGYTFTRYTMHWVRQAPGKGLEWIGYINPSRGYTNYNQKVKDRFTISRDNSKNTAFLQMDSLRPEDTGVYFCARYYDDHYSLDYWGQGTPVTVSSGGGGSGGGGSGGGGSDIQMTQSPSSLSASVGDRVTITCSASSSVSYMNWYQQTPGKAPKRWIYDTSKLASGVPSRFSGSGSGTDYTFTISSLQPEDIATYYCQQWSSNPFTFGQGTKLQITRGGGGSDIQMTQSPSSLSASVGDRVTITCLASEDIYSYLAWYQQKPGKAPKLLIFAANRLQDGVPSRFSGSGSGTDFTLTISSLQPEDFATYYCLQGSKFPYTFGPGTKVDIKGGGGSGGGGSGGGGSQVQLVQSGAEVKKPGSSVKVSCKASGYTFTRNFIHWIRQAPGQGLEWIGWIFPGDADTEYNQKFSGRATITADKSTSTAYMELSSLRSEDTAVYYCARGNYNYEYFDYWGQGTMVTVSS[… human IgG1 Fc with changes …]
EC50 of cytotoxic activity (pM) [2]: 26 pM

B4: Antibody 6 (bispecific antibody)
chain: DIQMTQSPSSLSASVGDRVTITCSASSSVSYMNWYQQTPGKAPKRWIYDTSKLASGVPSRFSGSGSGTDYTFTISSLQPEDIATYYCQQWSSNPFTFGQGTKLQITRGGGGSQVQLQQSGAELVKPGSSVKISCKASGYTFTRNFIHWIKQQPGNGLEWIGWIFPGDGDTEYNQKFNGKATLTADKSSSTAYMQLSSLTSEDSAVYFCARGNYNYEYFDYWGQGVMVTVSSGGGGSGGGGSGGGGSGGGGSDIQMTQSPASLSASLGETVSIECLASEDIYSYLAWYQQKPGKSPQLLIFAANRLQDGVPSRFSGSGSGTQFSLKISGMQPEDEGDYFCLQGSKFPYTFGPGTKLELNGGGGSQVQLVQSGGGVVQPGRSLRLSCKASGYTFTRYTMHWVRQAPGKGLEWIGYINPSRGYTNYNQKVKDRFTISRDNSKNTAFLQMDSLRPEDTGVYFCARYYDDHYSLDYWGQGTPVTVSS[… human IgG1 Fc with changes …]
EC50 of cytotoxic activity (calcein release, T-LAK effector cells) [1]: 85 pM

B5: Antibody 4 (bispecific antibody)
chain: QVQLVQSGGGVVQPGRSLRLSCKASGYTFTRYTMHWVRQAPGKGLEWIGYINPSRGYTNYNQKVKDRFTISRDNSKNTAFLQMDSLRPEDTGVYFCARYYDDHYSLDYWGQGTPVTVSSGGGGSGGGGSGGGGSDIQMTQSPSSLSASVGDRVTITCSASSSVSYMNWYQQTPGKAPKRWIYDTSKLASGVPSRFSGSGSGTDYTFTISSLQPEDIATYYCQQWSSNPFTFGQGTKLQITRGGGGSDIQMTQSPASLSASLGETVSIECLASEDIYSYLAWYQQKPGKSPQLLIFAANRLQDGVPSRFSGSGSGTQFSLKISGMQPEDEGDYFCLQGSKFPYTFGPGTKLELNGGGGSGGGGSGGGGSQVQLQQSGAELVKPGSSVKISCKASGYTFTRNFIHWIKQQPGNGLEWIGWIFPGDGDTEYNQKFNGKATLTADKSSSTAYMQLSSLTSEDSAVYFCARGNYNYEYFDYWGQGVMVTVSS[… human IgG1 Fc with changes …]
EC50 of cytotoxic activity (calcein release, T-LAK effector cells) [1]: 23 pM
